Results published in patent US20150004162A1.
Where a chain is given by its changes, count along the chain named. These are yes or no findings as the source states them, for the method shown. Some entries that bind do so weakly or less than the wild type. For some of these results: Sequences can lack the tags named with a protein.

Protein sequences, listed by entry. Tags and fused reporters are not part of them. Lines headed by an entry give the natural chain unless they say otherwise; changes in a name come on top.
UniProt O14763: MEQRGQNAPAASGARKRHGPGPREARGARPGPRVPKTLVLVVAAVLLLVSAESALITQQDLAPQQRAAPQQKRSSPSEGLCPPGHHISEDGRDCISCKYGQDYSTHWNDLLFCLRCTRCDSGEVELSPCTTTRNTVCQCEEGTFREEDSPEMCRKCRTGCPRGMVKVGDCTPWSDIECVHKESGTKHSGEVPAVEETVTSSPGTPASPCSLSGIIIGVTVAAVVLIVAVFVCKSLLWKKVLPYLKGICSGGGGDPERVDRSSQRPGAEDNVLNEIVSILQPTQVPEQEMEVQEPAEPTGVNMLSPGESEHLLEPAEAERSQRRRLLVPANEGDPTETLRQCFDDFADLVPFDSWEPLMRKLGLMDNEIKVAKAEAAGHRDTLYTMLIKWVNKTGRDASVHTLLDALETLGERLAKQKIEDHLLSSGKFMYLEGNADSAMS

T1: human DR4-Fc (human) (UniProt O00220)
T1 sequence: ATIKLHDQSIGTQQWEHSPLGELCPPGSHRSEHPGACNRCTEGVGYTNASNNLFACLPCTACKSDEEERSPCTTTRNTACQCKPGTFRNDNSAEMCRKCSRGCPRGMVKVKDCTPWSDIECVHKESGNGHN

T2: human DR4 (human) (UniProt O00220)
T2 sequence: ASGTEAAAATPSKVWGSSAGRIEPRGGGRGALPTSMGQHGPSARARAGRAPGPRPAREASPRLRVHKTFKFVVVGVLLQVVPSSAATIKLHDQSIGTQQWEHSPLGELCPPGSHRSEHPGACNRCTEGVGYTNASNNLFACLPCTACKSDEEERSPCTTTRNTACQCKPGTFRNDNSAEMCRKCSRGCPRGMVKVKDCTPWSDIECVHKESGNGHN

T3: hOPG (human) (UniProt O00300)
T3 sequence (receptor, looked up): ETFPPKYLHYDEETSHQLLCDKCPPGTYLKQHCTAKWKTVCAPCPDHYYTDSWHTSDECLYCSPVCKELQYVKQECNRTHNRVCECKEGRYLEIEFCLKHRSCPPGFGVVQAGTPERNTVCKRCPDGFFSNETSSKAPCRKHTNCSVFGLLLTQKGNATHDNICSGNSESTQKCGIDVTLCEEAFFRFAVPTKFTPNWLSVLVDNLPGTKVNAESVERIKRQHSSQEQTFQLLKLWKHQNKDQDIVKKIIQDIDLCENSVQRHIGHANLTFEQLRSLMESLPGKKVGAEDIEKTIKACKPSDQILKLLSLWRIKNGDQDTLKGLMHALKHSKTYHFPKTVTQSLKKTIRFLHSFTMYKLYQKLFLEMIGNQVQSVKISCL

T4: Rhesus (NHP-2) DR4-Fc (Rhesus) (UniProt F6TP00)
T4 sequence: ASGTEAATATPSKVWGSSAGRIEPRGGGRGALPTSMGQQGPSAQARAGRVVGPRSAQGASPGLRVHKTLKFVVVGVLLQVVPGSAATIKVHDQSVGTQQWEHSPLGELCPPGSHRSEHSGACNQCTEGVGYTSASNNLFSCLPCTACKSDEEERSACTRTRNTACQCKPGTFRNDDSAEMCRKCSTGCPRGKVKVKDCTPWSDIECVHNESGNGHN

B1: 3631-G09 bivalent SBP (protein)
VH: EVQLVESGGGLVKPGGSLRLSCAASGFTFSTYGMHWVRQAPGKGLEWVAGINYSGNNKYYADSVKGRFTISRDNAKNSLYLQMNSLRAEDTAVYYCARDHSTWLSRHLDYWGQGTLVTVSS
surrogate light: QPVLHQPPAMSSALGTTIRLTCTLRNDHDIGVYSVYWYQQRPGHPPRFLLRYFSQSDKSQGPQVPPRFSGSKDVARNRGYLSISELQPEDEAMYYCAMGARSSVTHVFGSGTQLTVLSQPKATPSVTLFPPSSEELQANKATLVCLMNDFYPGILTVTWKADGTPITQGVEMTTPSKQSNNKYAASSYLSLTPEQWRSRRSYSCQVMHEGSTVEKTVAPAECS
B2: 3706-A02 (SL466) (protein)
VH: B1 VH with H100S, W103T, L104R, S105T, H107A
light: B1 surrogate light

Tests used:
[1] = biological target: human DR5-Fc (human) (UniProt O14763); assay: ELISA, 10 nM bivalent SBP on coated human DR5-Fc (100 ng/well)
[2] = biological target: T1, human DR4-Fc (human); assay: ELISA, 100 ng/well human DR4-Fc, 10 nM bivalent SBP, detection HRP-aVpreB
[3] = biological target: human DR5 (human) (UniProt O14763); assay: antigen ELISA on coated human DR5
[4] = biological target: T2, human DR4 (human); assay: antigen ELISA on coated human DR4
[5] = biological target: T1, human DR4-Fc (human); assay: ELISA, 10 nM bivalent SBP on coated human DR4-Fc (100 ng/well)
[6] = biological target: human DR5-Fc (human) (UniProt O14763); assay: ELISA, 100 ng/well human DR5-Fc, 10 nM bivalent SBP, detection HRP-aVpreB
[7] = biological target: T3, hOPG (human); assay: ELISA, bivalent SBP on TRAIL receptor family proteins [C]
[8] = biological target: T4, Rhesus (NHP-2) DR4-Fc (Rhesus); assay: ELISA, half-log dilutions on coated Fc fusion, anti-VpreB-HRP
[9] = biological target: T4, Rhesus (NHP-2) DR4-Fc (Rhesus); assay: ELISA on coated Fc fusion (figure legend)
[10] = biological target: T4, Rhesus (NHP-2) DR4-Fc (Rhesus); assay: ELISA on coated NHP-2 DR4-Fc, detection with anti-VpreB-HRP [panel C]

| Binder | binding [1] | binding [2] | binding [3] | binding [4] | binding [5] | binding [6] | binding [7] | binding [8] | binding [9] | binding [10] |
| --- | --- | --- | --- | --- | --- | --- | --- | --- | --- | --- |
| B1 | binds | binds | binds | binds | binds | binds | no binding (tested: 1000 nM) | – | – | – |
| B2 | – | – | – | – | – | – | – | binds | binds | binds |
